# Source: PubChem BioAssay AID1460 (National Center for Advancing Translational Sciences (NCATS), 2008)
# In all, about 270,000 compounds went through this assay and about 5,800 (2.1%) were called active. Inconclusive means that the source gave no clear call. Such entries were picked first, then a sample of the others. Calls follow the shape of the dose curve; as a rule, active = well fitted inhibition curve with a large enough effect; inconclusive = small, poorly fitted or top-dose-only effect; inactive = flat fitted curve, though single readings scatter. Potencies beside an inconclusive call are fits to weak or partial responses and may not hold up.
# Biological target: Microtubule-associated protein tau (Homo sapiens) (UniProt P10636)
# Sequence of UniProt P10636 (P10636 whole entry, looked up): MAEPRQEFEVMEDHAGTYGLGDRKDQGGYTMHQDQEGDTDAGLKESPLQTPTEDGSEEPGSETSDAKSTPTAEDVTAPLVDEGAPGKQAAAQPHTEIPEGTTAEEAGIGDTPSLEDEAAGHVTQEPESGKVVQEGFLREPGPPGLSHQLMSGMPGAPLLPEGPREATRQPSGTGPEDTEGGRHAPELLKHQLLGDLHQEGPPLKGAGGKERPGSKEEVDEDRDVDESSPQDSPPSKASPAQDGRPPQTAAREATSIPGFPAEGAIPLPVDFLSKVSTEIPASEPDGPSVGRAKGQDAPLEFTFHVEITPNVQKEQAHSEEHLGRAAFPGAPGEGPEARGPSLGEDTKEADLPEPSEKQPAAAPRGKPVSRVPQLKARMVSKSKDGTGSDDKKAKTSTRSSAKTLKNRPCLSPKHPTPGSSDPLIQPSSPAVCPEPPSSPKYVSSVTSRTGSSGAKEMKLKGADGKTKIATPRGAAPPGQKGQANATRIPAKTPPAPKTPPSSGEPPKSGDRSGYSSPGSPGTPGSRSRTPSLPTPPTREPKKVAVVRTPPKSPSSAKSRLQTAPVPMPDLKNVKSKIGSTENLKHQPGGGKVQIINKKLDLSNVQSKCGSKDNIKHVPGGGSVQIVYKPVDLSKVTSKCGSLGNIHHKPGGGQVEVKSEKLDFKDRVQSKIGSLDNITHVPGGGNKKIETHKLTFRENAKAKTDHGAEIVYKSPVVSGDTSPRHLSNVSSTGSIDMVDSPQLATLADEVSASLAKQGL
# Assay: qHTS for Inhibitors of Tau Fibril Formation, Thioflavin T Binding; also: nearly all actives have a fitted effect of over 55% in size
# Settings: recombinant tau K18 P301L (four-repeat tau fragment), heparin-induced fibrillization, ThT fluorescence; series mostly up to 57.4 µM
# Summary of the method: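 Recombinant human tau K18 fragment […] carrying P301L, 15 uM unlabeled plus 0.24 uM Alexa 594-labeled, was fibrillized with 20 uM heparin in 100 mM sodium acetate pH 7 for 6 hr at 37 C; 30 uM ThT fluorescence read after 1 hr.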
# Potency is read from the fitted curve at half-maximal effect; tags tell the direction and shape of the fitted curve.
row,SMILES,Potency
1,COc1cc(/C=C(\NC(C)=O)C(=O)Nc2ccccc2C)ccc1OC(C)=O,inactive
2,CC(=O)Nc1ccc(NC(=O)CC(C)n2ccc(C)n2)cc1 (configuration not stated),inactive
3,Cn1nc(C(=O)OCC(=O)Nc2ccc3ccccc3c2)c2ccccc2c1=O,"inconclusive: 7.94 µM [inhibitor, partial curve]"
4,Oc1ccc(Cc2ccc(Cl)cc2)c(O)c1,inactive
5,Cn1c(=O)[nH]c(=O)c2c1nc(Br)n2C/C=N/Nc1ccccc1,inactive
6,CC(=O)c1ccc(NC(=O)c2ccn(C(=O)OCC(C)C)n2)cc1,"inconclusive: 8.91 µM [inhibitor, partial curve]"
7,O=C(c1cccc([N+](=O)[O-])c1)N1c2nc(-c3ccco3)nn2C2(CCCCC2)[C@@H]2CCCC[C@@H]21,inactive
8,CSc1ccccc1C(=O)Nc1ccccc1C(=O)N1CCCC1,inactive
9,CCOC(=O)CSc1n[nH]c(NC(=O)c2ccccc2)n1,"inconclusive: 22.4 µM [inhibitor, single point]"
10,CC(C)CNS(=O)(=O)c1ccc(CCC(=O)N2CCN(c3ccc(F)cc3)CC2)cc1,inactive
11,CC(C)Cn1nc(NC(=O)c2cccs2)c2cc3ccccc3nc21,"inconclusive: 14.1 µM [inhibitor, partial curve]"
12,Cc1cc(C)cc(N=c2c([N+](=O)[O-])nn(-c3ccc(Cl)cc3)n2O)c1,"inconclusive: 12.6 µM [inhibitor, partial curve, poor fit]"
13,O=C(NCc1ccccc1)C1=C[C@@H](c2ccc(Br)cc2)C[C@@H](OCCCCO)O1,"inconclusive: 28.2 µM [inhibitor, single point]"
14,COc1ccc(-n2ncc(Cl)c(Cl)c2=O)cc1,"inconclusive: 15.8 µM [inhibitor, partial curve]"
15,CC(=O)N(C)c1ccc(NC(=O)/C=C/c2ccccc2Cl)cc1,inactive
16,CC1=C(C(=O)Nc2ccccc2)C2(CCCCC2)C(C#N)=C(SCC(N)=O)N1,inactive
17,Cc1cc(C(=O)Nc2sc3c(c2C#N)CCCCC3)cs1,"inconclusive: 17.8 µM [inhibitor, partial curve]"
18,CCn1c(SCC(=O)Nc2nc3ccc(OC)cc3s2)nnc1-c1ccoc1C,"inconclusive: 10 µM [inhibitor, partial curve]"
19,CCOC(=O)/C(C(=O)Nc1ccc(Cl)cc1Cl)=C1/NC(C)(C)Cc2ccccc21,inactive
20,CCCCn1c2nc3ccccc3nc2c2c(=N)oc(C)nc21,"inconclusive: 31.6 µM [inhibitor, single point]"
21,CC(=O)c1cccc(NC(=O)C2CCN(c3nnc(-n4cccc4)s3)CC2)c1,inactive
22,Cc1cc(C)cc(-n2c(C)cc(/C=N/NC(=O)CN(c3c(C)cccc3C)S(C)(=O)=O)c2C)c1,inactive
23,C=CCn1c(COc2ccc(OC)cc2)nnc1SCn1nnc2ccccc2c1=O,"inconclusive: 44.7 µM [inhibitor, single point]"
24,CN(C)/C=N/c1cnc(C(=O)c2ccc(Cl)cc2)n1C,"inconclusive: 31.6 µM [inhibitor, partial curve]"

row,SMILES,Potency
1,CCSc1nnc(-c2cc3c(s2)-c2ccccc2CC3)o1,"inconclusive: 1.58 µM [inhibitor, full curve]"
2,COc1ccc(C2C(C(=O)N3CCN(c4ccccc4F)CC3)c3ccccc3C(=O)N2C)cc1 (configuration not stated),inactive
3,O=C(Nc1nnc(N2CCCC2)s1)Nc1cc(F)ccc1F,inactive
4,C=CCn1c(C)cc(C(=O)COC(=O)/C=C/c2cccc(OC)c2)c1C,"inconclusive: 17.8 µM [inhibitor, partial curve, poor fit]"
5,Cc1ccc(C)n1-n1c(C)nc2scc(-c3ccccc3)c2c1=O,"inconclusive: 0.708 µM [inhibitor, partial curve, poor fit]"
6,CCOC(=O)c1[nH]c(C)c(CCC(=O)Nc2ccc(C)cc2Cl)c1C,inactive
7,CC(c1nnc(SCC(=O)Nc2ccc3[nH]c(=O)[nH]c3c2)n1Cc1ccccc1)N(C)C (configuration not stated),"inconclusive: 28.2 µM [inhibitor, single point]"
8,O=C(NCc1cccnc1)c1ccc(-c2cccc(Cl)c2Cl)o1,inactive
9,CCCn1nc(-c2ccccc2)c2nc3ccccc3nc21,"inconclusive: 31.6 µM [activator, single point]"
10,CC(C)Nc1cc(N2CCN(C3CCCCC3)CC2)c2noc3c2c1C(=O)c1ccccc1-3,"inconclusive: 11.2 µM [inhibitor, partial curve]"
11,Brc1ccc(-c2csc(NNC3=NCCCCC3)n2)cc1,"inconclusive: 22.4 µM [inhibitor, single point]"
12,COc1ccc(CCNc2nc(-c3ccccc3OC)cc(C(F)(F)F)n2)cc1OC,"inconclusive: 20 µM [inhibitor, partial curve, poor fit]"
13,Cc1cs/c(=N\N=C\c2ccc(O)cc2)n1Cc1ccco1,"inconclusive: 14.1 µM [inhibitor, partial curve]"
14,O=C(N/N=C/c1ccc(N2CCCC2)c([N+](=O)[O-])c1)c1cccnc1,active: 14.1 µM
15,CCOC(=O)c1c(N)sc2c(OCC)c(Br)ccc12,"inconclusive: 20 µM [inhibitor, partial curve]"
16,Cc1ccc2nc(N(CCCN(C)C)C(=O)c3cc4ccccc4oc3=O)sc2c1,"inconclusive: 17.8 µM [inhibitor, partial curve, poor fit]"
17,CCC1=NN=C(c2ccc(F)cc2)C(c2c[nH]c3ccccc23)N1O (configuration not stated),inactive
18,CCOc1ccc(C(=O)Nc2c(C)nc(Nc3ccccc3)nc2Nc2ccccc2)cc1OCC,"inconclusive: 12.6 µM [inhibitor, partial curve]"
19,COc1cc(/C=N/NC(=O)c2ccc(CN3C(=O)c4cccc5cccc3c45)cc2)cc(OC)c1O,"inconclusive: 39.8 µM [inhibitor, single point]"
20,CCC(=O)N1CCc2cc(S(=O)(=O)NC(Cc3ccccc3)C(=O)NCc3cccc(OC)c3)ccc21 (configuration not stated),inactive
21,COc1ccc(-c2cn3nc(N4CCCC(C(=O)NCCCOC(C)C)C4)sc3n2)cc1 (configuration not stated),"inconclusive: 8.91 µM [inhibitor, partial curve]"
22,Cc1ccc(N2C(=O)[C@@H]3[C@H](C2=O)C2c4ccccc4C=NN2[C@@H]3C(=O)c2ccc(Cl)cc2)cc1 (some centres not stated),inactive
23,COc1ccc(C(=O)n2c(-c3ccco3)nc3ccccc32)cc1,"inconclusive: 35.5 µM [inhibitor, partial curve]"
24,COc1ccccc1N1CCN(/N=C\c2sccc2C)CC1,"inconclusive: 8.91 µM [inhibitor, full curve, poor fit]"

row,SMILES,Potency
1,COc1ccccc1N1CCN(c2ccc([N+](=O)[O-])nc2)CC1,"inconclusive: 7.08 µM [inhibitor, partial curve]"
2,CCn1c(SCC(=O)Nc2ccc3c(c2)OCO3)nc2ccccc21,"inconclusive: 20 µM [inhibitor, single point]"
3,Cc1ccc(NC(=O)CC2Nc3ccccc3NC2=O)cc1Cl (configuration not stated),"inconclusive: 15.8 µM [inhibitor, partial curve]"
4,Cc1cc2c(sc3c(C)ccc(C)c32)c(C)n1,"inconclusive: 39.8 µM [inhibitor, single point]"
5,COc1cc(OC)c2c(-c3cccc(-c4ccc(O)cc4)c3)cc(=O)oc2c1,"inconclusive: 44.7 µM [inhibitor, single point]"
6,COCCNc1cc(N)c([N+](=O)[O-])cc1[N+](=O)[O-],"inconclusive: 14.1 µM [inhibitor, partial curve]"
7,CCCn1nc2cc(C(=O)NCCc3ccc(C)cc3)ccc2c1OCC,"inconclusive: 15.8 µM [inhibitor, partial curve]"
8,Cc1ccc2c(c1)c1c(c(=O)n(-c3ccccc3C)c(=O)n1Cc1cccc(F)c1)n2C,inactive
9,N#CC(C#N)=Cc1ccc(-c2ccc(S(=O)(=O)N=C(N)N)cc2)o1,active: 20 µM
10,CCC(Sc1ccc(C(=O)O)cc1)C(=O)O (configuration not stated),inactive
11,N/C(=N\OC(=O)/C=C/c1ccc(Br)cc1)c1ccccn1,"inconclusive: 2 µM [inhibitor, full curve, poor fit]"
12,Cc1ccc(Nc2nc(C(N)=O)c(NC(=O)c3ccccc3Br)s2)cc1,"inconclusive: 3.55 µM [inhibitor, full curve]"
13,Cc1ccc(S(=O)(=O)N2CCOCC2)cc1N/N=C(\C#N)c1nc2ccccc2[nH]1,"inconclusive: 12.6 µM [inhibitor, partial curve]"
14,Cc1nc2nc(NC(=O)C(C)C)[nH]n2c(=O)c1Cc1ccccc1,inactive
15,COc1ccc(C2=NOC(Cn3c(Cc4ccc(Cl)cc4)nc4c3c(=O)n(C)c(=O)n4C)C2)cc1 (configuration not stated),"inconclusive: 2.24 µM [inhibitor, partial curve]"
16,COc1ccc2sc(C)nc2c1NC(C)=O,inactive
17,Cc1cc(CCC(=O)O)c(C)cc1CCC(=O)O,inactive
18,CC(=O)c1ccc(NC(=O)CC2Sc3ccccc3NC2=O)cc1 (configuration not stated),"inconclusive: 17.8 µM [inhibitor, partial curve, poor fit]"
19,CC1=C(C(=O)Nc2ccc(C)cc2C)C(c2cccs2)n2nc(SCc3ccc(Cl)cc3)nc2N1 (configuration not stated),inactive
20,O=C(N/N=C/c1c(Cl)cccc1Cl)c1n[nH]c2c1CCCC2,inactive
21,CC(Sc1nc2ccccc2c(=O)[nH]1)C(=O)O (configuration not stated),inactive
22,CC1=CC(=O)N(c2ccc(C)cc2)C1c1ccc(Cl)cc1 (configuration not stated),inactive
23,CCN(CC)S(=O)(=O)c1cccc(-c2nnc(SC(C)C#N)n2Cc2ccccc2)c1 (configuration not stated),inactive
24,COC(=O)c1ccccc1NC(=O)N1CCN(C/C=C/c2ccccc2)CC1,"inconclusive: 39.8 µM [inhibitor, single point]"
